From PubChem BioAssay (Tox21)
Values joined by “and” are separate entries in the source; they are usually repeats but may differ in a detail not shown here. Equal values may be shown once. The shares of active, inactive and inconclusive entries below differ from those in the screen. For part of these data: Potencies beside an inconclusive call are fits to weak or partial responses and may not hold up. Active and inactive are the calls of the source. Unless noted, the call rests on the fitted dose curve; in most records, active means well fitted curve in the direction sought with a large enough effect in the repeat runs; inconclusive means weak or mixed curves; inactive means no such curve, though single readings can be large; an effect the other way counts as inactive or inconclusive.

Tests used:
[1] = target: Nuclear receptor subfamily 1 group I member 2 (Homo sapiens) (UniProt O75469); experiment: Human pregnane X receptor (PXR) activation by small molecules, qHTS assay (AID 1346985); settings: DPX-2 HepG2 CYP3A4-luciferase, 24 h; series mostly up to 38.3 µM; further: nearly all actives have a fitted effect of over 40% in size
Summary of the method: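 DPX-2 cells (HepG2 co-transfected with a PXR response element and a CYP3A4-promoter luciferase construct) were seeded at 2,000 per well, rested 5 hr at 37C, then exposed to DMSO-dissolved compounds for 24 hr. Activation was read as luciferase luminescence.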

[2] = target: Nuclear receptor subfamily 1 group I member 2 (Homo sapiens) (UniProt O75469); experiment: Human pregnane X receptor (PXR) small molecule agonists, qHTS assay (AID 1346982); settings: PXR-Luc HepG2, CYP3A4 luciferase reporter, 24 h; series mostly up to 92.4 µM; further: potency means the concentration at half of the fitted maximal effect; nearly all actives have a fitted effect of over 35% in size
Summary of the method: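 Reporter HepG2 cells expressing PXR-Luc are cultured in charcoal-stripped FBS (5%), treated with compounds for 24 hr at 37 C, and assayed by ONE-Glo luminescence after 30 min at room temperature.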

[3] = target: Cytochrome P450 2D6 (Homo sapiens) (UniProt P10635); experiment: Cytochrome P450 Family 2 Subfamily D Member 6 (CYP2D6) small molecule antagonists: luciferase reporter qHTS assay (AID 1671196); settings: P450-Glo CYP2D6 enzyme assay, luciferin luminescence, 1 h; series mostly up to 115 µM; further: potency means the concentration at half of the fitted maximal effect; nearly all actives have a fitted effect of over 50% in size
Summary of the method: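 Test chemicals meet CYP2D6 plus proluciferin substrate (10 min, RT); NADPH regenerating solution then drives turnover for 1 h. Detection reagent halts the reaction; luminescence measured after 20 min.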

[4] = target: Acetylcholinesterase (Homo sapiens) (UniProt P22303); experiment: Acetylcholinesterase (AChE) small molecule antagonists: colormetric cell-based qHTS assay (AID 1347395; calls by dose curve; further: potency means the concentration at half of the fitted maximal effect; nearly all actives have a fitted effect of over 30% in size); settings: SH-SY5Y cells AChE activity, colorimetric (Ellman); series mostly up to 115 µM
Summary of the method: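 In this cell-based qHTS, attached SH-SY5Y cells were treated with test chemicals for 30 min, after which acetylthiocholine hydrolysis was followed by DTNB colour development over 90 min at 37 C.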

[5] = target: Nuclear receptor subfamily 1 group I member 2 (Rattus norvegicus) (UniProt Q9R1A7); experiment: Rat pregnane X receptor (rPXR) activation by small molecules, qHTS assay (AID 1346983); settings: rPXR luciferase reporter cells, One-Glo luminescence, 24 h; max activation: stronger effect = higher value; further: potency means the concentration at half of the fitted maximal effect; nearly all actives have a fitted effect of over 20% in size
Summary of the method: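 Cell-based rPXR activation assay: rPXR cells, 2,000 per well, rested 5hr at 37 C, then exposed to compounds in DMSO for 24 hr at 37 C. Luciferase activity read by One-Glo luminescence after 30 min at room temperature.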

[6] = target: Acetylcholinesterase (Homo sapiens) (UniProt P22303); experiment: Acetylcholinesterase (AChE) small molecule antagonists: enzyme-based qHTS assay (AID 1347397; calls by dose curve; further: potency means the concentration at half of the fitted maximal effect; nearly all actives have a fitted effect of over 55% in size); settings: Potency: AChE enzyme activity inhibition; series mostly up to 53 µM
Summary of the method: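 In this quantitative HTS, compounds from the Tox21 10K collection were preincubated 30 min at ambient temperature with recombinant human AChE dispensed at 50 mU/mL. Hydrolysis of acetylthiocholine was then followed for 10 min by DTNB colour development.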
Tags describe the fitted curve by direction and shape.

UniProt O75469, sequence (O75469 whole entry, looked up): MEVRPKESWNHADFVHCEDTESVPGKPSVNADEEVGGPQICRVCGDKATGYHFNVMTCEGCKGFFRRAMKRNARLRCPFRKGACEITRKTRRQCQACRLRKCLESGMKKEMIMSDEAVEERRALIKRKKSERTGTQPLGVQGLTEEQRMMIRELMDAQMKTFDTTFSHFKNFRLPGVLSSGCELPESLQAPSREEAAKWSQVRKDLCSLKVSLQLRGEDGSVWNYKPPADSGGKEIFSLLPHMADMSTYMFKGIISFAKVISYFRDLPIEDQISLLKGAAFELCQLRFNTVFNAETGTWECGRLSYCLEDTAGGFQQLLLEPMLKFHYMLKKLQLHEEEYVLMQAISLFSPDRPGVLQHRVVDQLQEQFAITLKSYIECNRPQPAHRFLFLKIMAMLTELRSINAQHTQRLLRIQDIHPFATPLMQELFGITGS
UniProt P10635, sequence (P10635 whole entry, looked up): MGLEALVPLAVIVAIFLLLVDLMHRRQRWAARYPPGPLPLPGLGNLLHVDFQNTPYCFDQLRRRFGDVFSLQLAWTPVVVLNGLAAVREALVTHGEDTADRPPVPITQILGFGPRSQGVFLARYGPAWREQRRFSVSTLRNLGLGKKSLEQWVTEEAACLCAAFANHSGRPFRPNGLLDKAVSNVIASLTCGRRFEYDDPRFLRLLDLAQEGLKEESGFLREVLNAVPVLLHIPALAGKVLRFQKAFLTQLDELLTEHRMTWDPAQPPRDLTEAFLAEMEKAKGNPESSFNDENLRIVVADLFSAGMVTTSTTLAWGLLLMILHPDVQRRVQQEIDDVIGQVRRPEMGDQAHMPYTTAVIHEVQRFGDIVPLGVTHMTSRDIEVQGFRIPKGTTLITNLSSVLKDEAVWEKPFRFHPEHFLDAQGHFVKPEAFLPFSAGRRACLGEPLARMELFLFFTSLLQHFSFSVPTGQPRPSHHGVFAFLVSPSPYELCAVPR
UniProt P22303, sequence (P22303 whole entry, looked up): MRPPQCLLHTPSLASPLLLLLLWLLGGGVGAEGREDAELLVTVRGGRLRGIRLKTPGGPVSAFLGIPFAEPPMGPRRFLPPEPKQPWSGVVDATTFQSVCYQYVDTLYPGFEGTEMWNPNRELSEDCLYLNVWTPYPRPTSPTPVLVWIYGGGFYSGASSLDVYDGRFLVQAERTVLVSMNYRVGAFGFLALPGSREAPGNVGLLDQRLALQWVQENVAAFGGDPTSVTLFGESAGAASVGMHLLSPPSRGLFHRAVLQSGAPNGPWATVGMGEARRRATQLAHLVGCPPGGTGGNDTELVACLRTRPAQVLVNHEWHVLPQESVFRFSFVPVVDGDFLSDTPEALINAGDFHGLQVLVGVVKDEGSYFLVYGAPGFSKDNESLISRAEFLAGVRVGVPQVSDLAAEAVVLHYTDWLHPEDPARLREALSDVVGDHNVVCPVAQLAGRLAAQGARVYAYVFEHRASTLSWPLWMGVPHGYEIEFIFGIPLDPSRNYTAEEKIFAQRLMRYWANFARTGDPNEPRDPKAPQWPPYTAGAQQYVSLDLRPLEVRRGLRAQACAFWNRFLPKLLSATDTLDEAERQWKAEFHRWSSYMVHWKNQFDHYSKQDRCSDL
UniProt Q9R1A7, sequence (Q9R1A7 whole entry, looked up): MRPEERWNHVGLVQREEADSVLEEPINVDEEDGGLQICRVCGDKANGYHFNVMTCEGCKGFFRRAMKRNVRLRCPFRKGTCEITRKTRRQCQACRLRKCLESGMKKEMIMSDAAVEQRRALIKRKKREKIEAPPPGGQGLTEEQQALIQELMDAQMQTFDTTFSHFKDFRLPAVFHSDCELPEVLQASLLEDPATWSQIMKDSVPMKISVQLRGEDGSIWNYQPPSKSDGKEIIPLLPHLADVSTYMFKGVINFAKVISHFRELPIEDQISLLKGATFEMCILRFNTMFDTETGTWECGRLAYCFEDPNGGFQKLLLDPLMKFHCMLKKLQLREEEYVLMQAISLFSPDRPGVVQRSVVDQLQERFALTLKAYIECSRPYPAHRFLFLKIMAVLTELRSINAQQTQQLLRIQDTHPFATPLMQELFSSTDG

For Cn1c(CCCC(=O)O)nc2cc(N(CCCl)CCCl)ccc21, the Potency [1] was “inactive”.
For CCOP(=O)(OCC)Oc1ccc([N+](=O)[O-])cc1, the Potency [2] was inconclusive: 61.9 µM [activator, single point] and inconclusive: 54.5 µM [activator, single point] and the Potency [3] was active: 1.61 µM and active: 1.59 µM.
In the case of O=C(O)C(F)(F)C(F)(F)C(F)(F)C(F)(F)C(F)(F)C(F)(F)C(F)(F)F, the Potency [4] is reported as inconclusive: 89.1 µM [inhibitor, single point].
C[C@]12CC[C@@H]3c4ccc(OC(=O)N(CCCl)CCCl)cc4CC[C@H]3[C@@H]1CC[C@@H]2O was tested, and the Potency [5] was inconclusive: 39.8 µM [activator, single point].
With CC(C)=CC1C(C(=O)OC(C#N)c2cccc(Oc3ccccc3)c2)C1(C)C (centres undefined) the Potency [2] was active: 17.2 µM and the Potency [3] was inconclusive: 63.3 µM [inhibitor, partial curve].
N#CSCSC#N was tested, and the Potency [4] was inconclusive: 81.5 µM [inhibitor, partial curve] and inconclusive: 70.3 µM [inhibitor] and the Potency [6] was inconclusive: 81.5 µM [falling, single point].
